# Data: the RNAGym collection of RNA variant scans (doi:10.1093/nar/gkz1192)
# The source gives no read counts; variants with many changes may rest on few reads.
# B1: CPEB3 Ribozyme (parent)
# chain: UAACAGGGGGCCACAGCAGAAGCGUUCACGUCGCAGCCCCUGUCAGAUUCUGGUGAAUCUGCGAAUUCUGCUGUAUAUCUC
# Variants of: B1
# Assay: self-cleavage, relative activity (ratio to wild type); higher = more cleavage; in vitro, sequencing
# Method in brief: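 Barcoded CPEB3 ribozyme mutants, produced by rounds of error-prone PCR, self-cleaved while being transcribed with T7 RNA polymerase for 5 hours at 37°C and during a subsequent 15 min DNase I step before EDTA was added. Sequencing of template-switched cDNA on Illumina gave cleaved and total reads, and DNA sequencing assigned barcodes to variants. Each variant's relative activity is its cleaved/total read fraction divided by the unmutated ribozyme's fraction, averaged across three batches. A variant needed a minimum of 5 reads.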
row,Variant,self-cleavage
1,UAACAGGGGGCCUCAGCUGAAGCGUUCACGUCGCAGUCCCCGUCCGAUUCUGGUGAAUCUGCGAAUGCUGCUGUAUAUCUC [A13U A18U C37U U41C A45C U67G],0.09
2,UAACAGGGGGCCUCGGCUGACGCGUUCACGUCGUAGCCCCUGUCAGAUUCUGGUGAAUCUGCGAAUACUGCUGUAUAUCUC [A13U A15G A18U A21C C34U U67A],0.15
3,UAACAGGGGGCCUCGGCAGAAGCGUUCACGUCGCUGCCCCUGUCAGAUUCUGGUGAAUCUGCGAAUUCUGCUGUAUAUCUC [A13U A15G A35U],0.35
4,UAACAGGGGGCCUCAGCUGAAGCGUUCACGUCGCAGCCUCUGUCAGAUUCUGGUGAAUCUGCGAAUUCUGCUGUAUAUCUC [A13U A18U C39U],0.1
5,UAACAGGGGGCCUCGGCAGAAGCGUUCACGUCGCAGCCCCUGUCAGAUUCUGGUGGGUCUGCGAAUUCUGCGGUAUAUCUC [A13U A15G A56G A57G U72G],0.21
6,UAACAGGGGGCCUCGUCAGGAGCGUUCACGUCGCAGCCCCUGUCAGAUUCUGGUGAAUCUGCGAAUUCUGCUGUAUAUCUC [A13U A15G G16U A20G],0.54
7,UAACAGGGGGCCUCGGCAGGAGCGUUCACGUCGCCGCCCCUGUCAGGUUCUGGUGAAUCUGCGAAUUCUGCUGUAUAUCUC [A13U A15G A20G A35C A47G],0.08
8,UAACAGGGGGCCUCGGCAGGAGCGUUCACGUCGCAGCCCCUGUCAGAUUCUGGUGAAUCUGCGAAUCCUGCUGUAUAUCUC [A13U A15G A20G U67C],0.48
9,UAACAGGGGGCCUCUGCAGAAGCGCUCACGUCCCAGCCCCUGUCAGAUUCUGGUGAAUCUGCGAAUUCUGCUGUGUACCUC [A13U A15U U25C G33C A75G U78C],0.03
10,UAACAGGGGGCCUCAGCGGAAGCGUUCACGUCGCAGCCCAUGACAGAUUCUGGUGAAUCUGCGAAAUCUGCUGUUUAUCUC [A13U A18G C40A U43A U66A A75U],0.11
11,UAACAGGGGGCCUCAGCGGAAGCGUACACGUCGCAGCCCCUGUCAGAUUCUGGUGAAUCUGUGAAUUCUGCUGUAUAUCUC [A13U A18G U26A C62U],0.16
12,UAACAGGGGGCCUCAGCGGAAGCGUUCACGUCGCAGCCCCUGUCGGAUUCUGGUGAAUCUGAGAAUUCUGCUGUAUAUCUC [A13U A18G A45G C62A],0.35
13,UAACAGGGGGCCUCGGCAGAAGCGUCCACGUCGCAGCCCCUGUCAGAUCCUGGUGAAUCUGCGAAUUCUGCUGCAUAUCUC [A13U A15G U26C U49C U74C],0.48
14,UAACAGGGGGCCUCCGCAGAGGCGUUCACGUCGCAGCCCCCGUCAGAUUCUGGUGUAUCUGCGAAUCCUGCCGUAUAUCUC [A13U A15C A21G U41C A56U U67C U72C],0.14
15,UAACAGGGGGCCUCUGCAGAAGCGUUCAUGUCUCAGCCCCUGUCAGACUCUGGUGAGUCUGUGAAUUCUGCUGUAUAUCUC [A13U A15U C29U G33U U48C A57G C62U],0.03
16,UAACAGGGGGCCUCAGCGGGAGCGCCCACGUCGCAGCCCCUGUCAGAUUCUGGUGAAUCUGCGAAUUCUGCUGUAUAUCUC [A13U A18G A20G U25C U26C],0.44
17,UAACAGGGGGCCUCGGCAGAAGCGUUCACGCUGCAGCCCCUGUCAGAUUCUGGUGAAUCCGCGAAUCCUGCUGUAUAUCUC [A13U A15G U31C C32U U60C U67C],0.04

row,Variant,self-cleavage
1,UAACAGGGGGCCUCAGCGGAAGCGUUCACGUCGCAGCCCCUGUCAGAUUCAGGUGAAUCUGCGAAUUCUGCUGUAUUUCUC [A13U A18G U51A A77U],0.59
2,UAACAGGGGGCCUCAGCGGAAGCGUUCACGUCGCAGCCCCAGUCAGGUUCUAGUGAAUCUGCGAAUUCUGCUGUAUAUCGC [A13U A18G U41A A47G G52A U80G],0.58
3,UAACAGGGGGCCUCUGCAGAAGCGUUCACGUCGCAGCCCCUGUCUGAUUCUGGUGAAUCUGCGAAUUCUGCUGUAUAUCAC [A13U A15U A45U U80A],0.26
4,UAACAGGGGGCCUCGGCAGAGGCGUUCACGUCGCAGCCCCUGUCAGAUUCUGGUGAAUCAGCGAAUUCUGCUGUAUAUCUC [A13U A15G A21G U60A],0.14
5,UAACAGGGGGCCUCGGCAGAAGCGUUCACGUCGCAGCCCCUGUCAGAUUCUGGUGAAUCUGCGAGUUCUGCUGUACAUCUC [A13U A15G A65G U76C],0.5
6,UAACAGGGGGCCUCAGCGGAAGCGUUCACGUCGCAGCCCCUGUCAGAUCCUGGUGAAUCUGCGAGUUCUGCUGUAUUUCUC [A13U A18G U49C A65G A77U],0.4
7,UAACAGGGGGCCUCAGCGGAAGCGUUCACGUCGCAGCCCCUGUCAGAUUCUGGCGAAUCUGCGAAUUCUGCUGUAUAUCUC [A13U A18G U54C],0.25
8,UAACAGGGGGCCUCGGCAGAAGCGUUCACGGCGCAGCCCCUGUCAGAUUCUGGUGAAUCUGCGAAUUCUGCUGUAUAUCUC [A13U A15G U31G],0.71
9,UAACAGGGGGCCUCUGCGGAAGCGUUCACGUCGCAGCCCCUGUCAGAUUCUGGUGAAUCUGCGAAUUCUGCCGUAUAUCUC [A13U A15U A18G U72C],0.35
10,UAACAGGGGGCCUCAGCGGAAGCGUUCACGUCGCAGCCCCUGUCAGAUUCUGGUGAAUCUGCGGAUUCUGCUGUAUAUCUC [A13U A18G A64G],0.81
11,UAACAGGGGGCCUCUGCAGAAGCGUUCACGUCGCAGCCCCUGUCAGAUUCUGGUGAAUCUGCGUAUUCUGCUGUAUAUCUC [A13U A15U A64U],0.21
12,UAACAGGGGGCCUCAGCGGAAGCGUUCACGUCGCAGCCCCUGUCAGAUUCUGGUGAAUCUGCGAGUUCUGCUGUAUAUCUC [A13U A18G A65G],0.26
13,UAACAGGGGGCCUCUGCAGAAGCGUUCUCGUCGCAGCCCCUGUCAGAUUCUGGUGAAUAUGCGAAUUCUGCUGUAUAUCUC [A13U A15U A28U C59A],0.07
14,UAACAGGGGGCCUCUGCAGAAGCGUUCACGACGCAGCCCCUGUCAGAUUCUGGUGAAUCUGCGAAUUCUGCUGUAUAUCAC [A13U A15U U31A U80A],0.45
15,UAACAGGGGGCCUCUGCAGAAGGGUUCUCGUCGCAGCCCCUGUCAGAUUCUGGUGAAUCUGAGAAUUCUGCUGUAUAACUC [A13U A15U C23G A28U C62A U78A],0.06
16,UAACAGGGGGCCUCUGCAGAAGCGUUCACGUCGCUGCCCCUGUCAGAUUCUGGUGAAUCUGCGAAUUCUGCUGUAUAUCUC [A13U A15U A35U],0.38
17,UAACAGGGGGCCUCUGCAGAAGCGUUCACGUCGCAGCCCCUGUCAGAUUCUGGUGUAUCUGCGAAUUCUGCUGUUUAUCUC [A13U A15U A56U A75U],0.21
